Measurements taken from the supplement of paper PMC10185492.
This is one part of the list. Read counts after selection give these values, which scatter widely.

These substances were tested on SARS-CoV-2 3CLpro (nsp5) (assay: substrate phage enrichment score (protease-eluted vs HEPES control, +1 offset) (ratio); higher = better cleaved substrate). Settings: selection round: 4; protease elution time: 15 min.
Protocol: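 Random heptapeptide substrate phage display (M13 pIII fusion, heptapeptide between an N-terminal biotinylated AviTag GLNDIFEAQKIEWHE and pIII; phages immobilised on streptavidin) eluted by cleavage with 50 nM protease in 20 mM HEPES at 37 °C. Selected phages were NGS sequenced, and the enrichment score is (reads in protease sample + 1)/(reads in HEPES blank-selection control + 1).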

Substance	substrate phage enrichment score
ELSEHRQ	> 82
SRRPVTS	> 30
CLTFGRN	> 32
SPKGYAW	> 29
SSHSRLQ	> 84
ELRQGYN	4.41
GRSTRLQ	30
KRTSPAR	2.57
EKSRDQC	0.132
ISAAAHH	0.532
PCSYANG	> 21
DLKSMPQ	23
RCQGRIR	11
AAVSILH	> 320
TKNTVLQ	> 82
MTGAARD	> 24
VARPSAK	2.57
STRCMLQ	> 45
GVRHWTT	1.53
LKSAQLQ	> 35
PLNSESR	2.47
PAGCAST	0.758
KAAARLQ	> 101
PRMGCNL	0.467

Substance	substrate phage enrichment score
QGEIDSH	> 57
EGLIEFH	> 34
YRESSLQ	> 35
KRTCIAD	> 35
LPRESGG	18.7
APGPEAP	> 21
PASRLPV	> 80
QKKRTPV	> 58
LWPHIII	0.833
PGVKLGR	9.4
RTRLQGQ	> 75
RQNLNRN	> 22
ARAPAPP	2.1
ALSLCPS	> 79
RWREPSR	22
HTSGQRF	0.867
GTHHQMT	10
TTHEDDK	7.25
SQSLKKQ	> 21
PGTSWQD	1.38
QVSELTG	> 85
ASCAILQ	> 26
VWGEPIT	> 27
GTEPHVR	3.43

Substance	substrate phage enrichment score
PMHPVQH	0.0714
RNTSRTT	1.08
VLNVQTG	1.46
FAEPRQG	> 33
RWSGTEI	0.833
THGHATA	2.38
VSRDNHT	> 30
GGNAQSH	3.1
KRGSAAA	9.31
AELRCTG	1.88
NRLKDCS	0.636
PREREKP	1.17
IRNTKGC	1.56
LNDVYVR	4.4
NAAAMTK	2
TADTGTR	6.8
IATPMPD	0.432
IQIPPTG	5.71
TPNANNQ	0.257
HPGETST	0.6
VTAAHHH	0.875
RQPERTE	2.4
SRTEYRQ	> 46
SAAAQNQ	1.56

Substance	substrate phage enrichment score
NRECRCN	> 24
FQGGSAA	1.36
RQSFEQR	2.33
SHKKEKS	0.472
AKAAHHH	1.23
RPCQIAV	4.2
TEHNGTR	> 57
SHVCRHR	> 22
PATILMS	92.5
TCLQSCV	66
SGSRSMR	2.14
SNSNEAA	0.722
CAAAPHH	0.794
RGGSAAA	1.32
VGRPCST	5.38
KDAQCIP	> 37
PSNDCGT	0.737
FNEGHAP	> 25
CPLIWQR	> 31
RACRLLR	2.37
RTQESSQ	> 34
PRSVHLQ	> 282
YQNSASK	> 32
LTADTAV	4.29

Substance	substrate phage enrichment score
VQPILDR	3.88
VRNTSKV	1.26
MTSNKVP	> 21
RATLLQS	> 23
LNTQDSH	2.82
VGRYNPR	1.09
LLRPTSG	> 28
SYRYTPR	0.389
QSSTMPR	3.62
GHVVPAL	> 36
CNACCAE	4.36
WPTPYYR	> 28
LSPPKCA	> 37
RQPVSAS	1.58
VIQTPEC	1.2
TGVVPRA	2.09
VKRPDCN	0.933
YTESKLQ	> 44
GRIILQC	> 39
PDEGTDL	> 30
EAKTPLI	> 22
RCNGPCA	> 41
QDARHCR	> 22
PEHSMLQ	> 220

Substance	substrate phage enrichment score
SLRTQVS	> 30
VTNPSFQ	4.21
STSKWSQ	> 29
LCFQGGS	0.636
QPANALK	2.75
CHVKHRS	> 21
GLRVGFR	3.29
IRAAHHH	0.682
KYPTGNP	0.519
SGHTRCT	7
NTRWSNP	5.4
TDCPPGK	0.907
PHFQGGS	0.64
LEAPLTT	> 51
QSTTRTS	12.2
IWAAHHH	0.368
WPAAHHH	1.39
LHKSSST	2.22
FAGMRSM	1.36
KTQYFQG	4.33
DSFGAYT	5.2
ERKPCGL	0.125
SRAGVTW	> 21
RVSIRCR	> 43

Substance	substrate phage enrichment score
SRPHIII	0.476
CSYRLRP	0.55
AGPEQMN	> 27
YLIQCEQ	> 41
TNAATMQ	> 45
PPIGNAS	> 27
SGAAETC	1.81
CGAGQSP	> 42
RSAAHHH	0.87
ASCRPVK	> 21
LPCPTLR	> 24
KGCLLTR	> 40
YPCCWQT	> 45
SRVLGVG	> 26
HHHHHGA	0.236
GLWCPRC	> 30
CAAAPQH	1.42
ISETTFP	0.6
IRPVCEK	> 55
DGARRDG	1.72
GLGAGNQ	1.13
AARVPGE	> 34
SRCGDTR	> 32
PNESAGI	> 23

Substance	substrate phage enrichment score
WRQPSQR	0.685
TVLQSYP	20
RPLPETN	0.138
SPQLCQP	> 41
QVPTKWR	1.38
VNYYSPR	> 24
PQSAETL	7
GLNNTQT	6.67
VPRDLRQ	1.01
STCGPKG	> 32
SDTRMNR	> 45
TYEKPQK	0.417
ETSRPER	10
IPTATLT	2.04
NELTPAK	> 25
ACMTGPV	6.67
RVKLQAQ	> 66
RCYSTLQ	> 169
KENNSRG	2.71
ASGTGVS	12.7
TNATGIS	> 22
ESYFQGG	0.533
NRDLSAQ	> 49
HERTHFW	2.24

Substance	substrate phage enrichment score
SWPSYRQ	13.7
QRNQWYQ	5
LNYYKRD	1.46
WQYNTYG	1.56
AEQQRLQ	2.3
KARDNRG	> 26
KSRLMPG	0.158
PRAKRDI	0.00717
DMRASQP	6.4
NSNIMKA	1.69
TNAAAHH	0.4
HPERNDV	7.33
VQYFQGG	6.67
LQSRTDT	> 49
CFYPELQ	> 66
SKSSYMG	7
KKNYNEQ	1.41
AHEHSWP	0.467
PYCCARN	1.29
GARLTPR	0.562
WSSAAHH	0.692
SGSDTQC	2.71
VESASSD	1.89
SSPCKLQ	> 39

Substance	substrate phage enrichment score
ESRPRTN	0.48
KAAAHHH	0.968
HERQETR	0.087
SRGTAEL	10
RSTWSKP	> 23
AHAGWHK	1.64
DSAAHHH	0.255
LSMPADR	> 64
SPTTILQ	> 47
TWMTQLQ	> 40
MHGVHDR	> 53
CLRQPIN	3.62
PSAHHHH	0.375
PRATSVT	3.83
RASKIGI	> 34
KQYGQGG	1.27
GSERSCR	7.33
SQSACHK	0.0972
